Read counts are not given, so values of variants with three or more changes are uncertain.
B1: CPEB3 Ribozyme (parent)
chain: UAACAGGGGGCCACAGCAGAAGCGUUCACGUCGCAGCCCCUGUCAGAUUCUGGUGAAUCUGCGAAUUCUGCUGUAUAUCUC

Variants of: B1
Assay: self-cleavage, relative activity (ratio to wild type); higher = more cleavage; in vitro, sequencing
In short: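 Barcoded CPEB3 ribozyme mutants, produced by rounds of error-prone PCR, self-cleaved while being transcribed with T7 RNA polymerase for 5 hours at 37°C and during a subsequent 15 min DNase I step before EDTA was added. Sequencing of template-switched cDNA on Illumina gave cleaved and total reads, and DNA sequencing assigned barcodes to variants. Each variant's relative activity is its cleaved/total read fraction divided by the unmutated ribozyme's fraction, averaged across three batches. A variant needed a minimum of 5 reads.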

| Variant | self-cleavage |
| --- | --- |
| UAACAGGGGGCCACAGCAGCAGCGUCCACGUCGCUGCCCCUGCCAGAUUCUGGUGAAUCUGCGAAUUCUGCUGCAUGUCUC [A20C U26C A35U U43C U74C A77G] | 0.08 |
| UAACAGGGGGCCACAGCAGCGGCGUUCACGUCGCAGCCCCCGUCAGAUUCUGGUGAAUCUGCGAAUUCUGCCGUAUAUCUC [A20C A21G U41C U72C] | 0.09 |
| UAACAGGGGGCCACAGCAUAAGCGUUCACGUCGCUGCCCCUGUCAGAUUCUGGUGAAUCAGCGAAUUCUGCUGUAUAUCUC [G19U A35U U60A] | 0.09 |
| UAACAGGGGGCCACAGCAGGGGCGCUCACGUCGCAGCCCCUGUCAGAUUCUGGUGAUUCUGCGAAUCCUGCUGUAUAUCUC [A20G A21G U25C A57U U67C] | 0.07 |
| UAACAGGGGGCCACAGCAUAAGCGGUCACGUCGCAGCCCCUGUCAGAUUCUGGCGAACCUGCGAAUUCAGCUGUAUAUCUC [G19U U25G U54C U58C U69A] | 0.13 |
| UAACAGGGGGCCACAGCAGGGGCGUUCACGUCGCAGCCCCUGUCAGAUUCUGGUGACUCUGCGAAUUCUGCUGCAUAUCUC [A20G A21G A57C U74C] | 0.47 |
| UAACAGGGGGCCACAGCAGCAGCGUUCACGUCGCAGCCCCUGUCAGAUUCUGGUGAAUCUGCGUAUUCUGCUGAAUAUCUC [A20C A64U U74A] | 0.14 |
| UAACAGGGGGCCACAGCAUAAGCGUUCACGUCGCAGCCCCUGUCAGAUACUGGUGAAUCUGCGAAUUCUGCAGUAUAUCUC [G19U U49A U72A] | 0.17 |
| UAACAGGGGGCCACAGCAGGUGCGUUCACGCCGCAGCCCCUGUCAGAUUCUGGUGAGUCUGCGAAUACUGCUGUAUAUCUC [A20G A21U U31C A57G U67A] | 0.17 |
| UAACAGGGGGCCACAGCAGGAGCGUUCGCGUCUCAGCCCCUGUCAGAUUCUGGUGAAUCUGCGGAUUCUGCUGUAUAUCUC [A20G A28G G33U A64G] | 0.08 |
| UAACAGGGGGCCACAGCAGGAGCGUUCGCGUCGCGGCCCCUGUCAGAUUCUCGUGAAUCUGCGAAUUCUGCUGUAUAUCUC [A20G A28G A35G G52C] | 1.12 |
| UAACAGGGGGCCACAGCAGCAGCGUUCACGUCACAGCCCCUGUCAGAUUCUGGUGAACUUGCGAGUUCUGCUGUAUAUCUC [A20C G33A U58C C59U A65G] | 0.05 |
| UAACAGGGGGCCACAGCAGCAGCGUUCACGUCGCAGCCCCUGUCCGAUUCUGGUGAAUCUGAGGAUUCUGCUGUGUAUCUC [A20C A45C C62A A64G A75G] | 0.04 |
| UAACAGGGGGCCACAGCAGCAGCGUUCGCGUCGCAGCCCCUUUCAGAUUCUGGUGAAUCUGCGAAUUCUGCUGUAUAUCUC [A20C A28G G42U] | 0.08 |
| UAACAGGGGGCCACAGCAGGAGCGUUCCCGUCGCAGCCCCUGUCAGAUUCUGGUGAAUCUGCGAGUUCUGCUGUAUAUCUC [A20G A28C A65G] | 0.14 |
| UAACAGGGGGCCACAGCAGCAGCGUUCACGCCGCAGCCCCUGUCAGAUUCUGGCGAAUCUGCGGAUUCUGCUGUAUAUCUC [A20C U31C U54C A64G] | 0.08 |
| UAACAGGGGGCCACAGCAGCAGCGCUCACGUCGCAGCUCCUGUCAGACUCUGGUGAAUCUGCGAAUUCUGCUGUAUAUCCC [A20C U25C C38U U48C U80C] | 0.04 |

| Variant | self-cleavage |
| --- | --- |
| UAACAGGGGGCCACAGCAGCUGCGCUCACGUCGCAGCCCCUGUCAGAUUCUGGUGAAUCCGCGAAUUCUGCUGUAUAUCUC [A20C A21U U25C U60C] | 0.05 |
| UAACAGGGGGCCACAGCAGGCGCGUUCACGUCGCAGCCCUUGUCAGAUUCUGGUGAAUCUGCGAAUUCUGCUCUAUAUCUC [A20G A21C C40U G73C] | 0.07 |
| UAACAGGGGGCCACAGCAGGUGCGUUCACGUCGCAGCCCCUGUCAGAUUCUGGUGAAUCUGCGAAUUCUGCUGUAUGUCUC [A20G A21U A77G] | 0.07 |
| UAACAGGGGGCCACAGCAGCAGCGUUCAUGCCGCAGCCCCUGUCAGACUCUGGUGAAUCUGCGAAUUCUGCUGUAUGUCUC [A20C C29U U31C U48C A77G] | 0.19 |
| UAACAGGGGGCCACAGCAGCAGCGUUCACGUCGCAGCCCCUGUCAGGUUCUGGGGUGUCUGCGAAUUCUGCUGUAUAUCUC [A20C A47G U54G A56U A57G] | 0.2 |
| UAACAGGGGGCCACAGCAGGUGCGUUCACGUCGCAGCCCCUGUCAGAUUCUGGUGAAUCUGUGAAUUCUGCUGUAUAUCUC [A20G A21U C62U] | 0.04 |
| UAACAGGGGGCCACAGCAGCAGCGUUCACGUCGCAGCCCCUGUCAGAUCCUGGAGAAUCUGCGAAUUCUGCUGCAUAUCUC [A20C U49C U54A U74C] | 0.17 |
| UAACAGGGGGCCACAGCAGCUGCGUUCACGUCGCAGCCCCUGUCAGAUUCUGGUGAAUCUGGGAAUUCUGCUGUAUUUCUC [A20C A21U C62G A77U] | 0.07 |
| UAACAGGGGGCCACAGCAUAAGCGUUCACGUCGCAGCCCCUGUCAGGUUCUGGUGAAUCUGCCAAUUCUGCUGUAUAUCUC [G19U A47G G63C] | 0.16 |
| UAACAGGGGGCCACAGCAUAAGCGCCCACGUCGCAGCCCCUGUCAGAUUCUGGUGAUCCUGCGAAUUCUGCUGUAUAUCCC [G19U U25C U26C A57U U58C U80C] | 0.07 |
| UAACAGGGGGCCACAGCAGCGGCGUUCACGUCGCUGCCCCUGUCAGAUUCUGGCGAAUCUGCGAAUUCUGCUGUAUAUCUC [A20C A21G A35U U54C] | 0.06 |
| UAACAGGGGGCCACAGCAGGGGCGUUCACGUCGCAGCCCCUGUCAGAUUCUGGUGAAUCUGCGAAUACUGCGGUAUAUCUC [A20G A21G U67A U72G] | 0.07 |
| UAACAGGGGGCCACAGCAUAAGCGUUCACGUCGCGGCCCCUGUCAGAUUCUGGUGAAUCUGCGAAUUCUGCCGUAUAUCUC [G19U A35G U72C] | 0.47 |
| UAACAGGGGGCCACAGCAUAAGCGUUCAUGUCGCAGCCCCUGCCAGAUUCUGGUGAAUCUGCGAAUUCUGCUGCAUAUCAC [G19U C29U U43C U74C U80A] | 0.04 |
| UAACAGGGGGCCACAGCAGGGGCGUUCACGUCGCGGCCCCUGUCAGAUUCUGGUGAAUCUGCGAAUUCUGCUGUAUAUCUC [A20G A21G A35G] | 0.67 |
| UAACAGGGGGCCACAGCAGCAGCGUUCACGUCGCAGCCCCCGUCAGACUCUGGUGGAUCUGCGAAUUCUGCGGUAUAUCUC [A20C U41C U48C A56G U72G] | 0.11 |
| UAACAGGGGGCCACAGCAGGGGCGUUCACGUCGCAGCCCCUGUCAGAUUCUGGUGAAUCUGCGAAUUCUGCCGUAUAUCUC [A20G A21G U72C] | 0.2 |
